# Some of the results follow. Each Rep nickase domain was tested in vitro on the same pool of single strands (3 µM enzyme, 1 h, 37 °C); shown is the middle of each 90-letter strand. A value is the log2 ratio of uncut reads to the pool without enzyme; more negative means more cut, near 0 not cut, and no call is made. Because reads are shares of a total, they shift together; uncut strands gain when others are lost, and binding without cutting may add a little.
# System: T1, Rep nickase domain of tomato golden mosaic virus
# T1 sequence (Rep 1-124, printed without the tag): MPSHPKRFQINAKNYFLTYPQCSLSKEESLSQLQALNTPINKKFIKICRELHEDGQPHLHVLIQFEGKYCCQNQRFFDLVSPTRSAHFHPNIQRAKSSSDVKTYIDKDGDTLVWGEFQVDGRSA
# Experiment: uncleaved DNA left, log2 of reads against the no-enzyme library (log2 ratio); higher = less cleavage (more negative = more Rep cleavage of the k-mer); sequences stand for … in CTCGTCCG…ACCGGAGA
# Experimental: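 A pool of 90-nt single-stranded DNAs with seven random bases just before the constant AC of the nick site (name = the seven bases) was cut by 3 µM recombinant His6-SUMO-tagged Rep nickase domain (300 nM DNA, 50 mM HEPES pH 8.0, 50 mM NaCl, 1 mM MnCl2, 1 h, 37 °C, three replicates). Uncut DNA was amplified and sequenced.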
row,Sequence,uncleaved DNA left (log2)
1,AGAGCCG,0.0306
2,CAATTAC,-0.263
3,ATACGGC,-0.11
4,CCTGTTC,0.0782
5,GTCGTAA,0.124
6,CGATAGT,0.0401
7,CTGAGCG,-0.0626
8,TCAATGG,0.117
9,CCTCCCT,-0.246
10,GATGATC,-0.101
11,TTGTCCA,0.0223
12,GTAACTC,0.0785
13,CCAAGAC,0.059
14,TCGTTAG,0.0381
15,GCCTACC,-0.175
16,CGAATGA,-0.00966
17,TTGCTGA,0.00217
18,CTGCGGG,-0.101
19,GAACCAA,0.0708
20,CTTGCCT,-0.000844

row,Sequence,uncleaved DNA left (log2)
1,ACGACCT,0.115
2,CAACCAT,-0.18
3,CGGTCCA,0.107
4,CCACAGG,0.103
5,CAGTTGA,0.0428
6,AGTCGGG,-0.0572
7,GAGCCTG,0.12
8,AAAGGTG,0.0393
9,TCCGAAG,0.11
10,TGGCGCC,-0.0799
11,ATAGCGT,-0.267
12,GACGGGC,0.0998
13,ATTACCT,-0.00324
14,AGGGAGA,0.215
15,TTTCCTA,-0.0927
16,ACAGAGG,0.0818
17,CGACGAC,-0.00756
18,CGAGCAT,0.118
19,TTTTTGT,-0.167
20,CCTGGAA,-0.037

# From the supplement of paper PMC7826260
